Laboratory results published in PubChem BioAssay AID624417 (National Center for Advancing Translational Sciences (NCATS), 2012).
Screen size: about 410,000 compounds; about 6,400 (1.6%) were called active. Inconclusive results, whose numbers are uncertain, are shown with a selection of clear calls. The call rests on the fitted dose curve; in most records, active means well fitted inhibition curve with a large enough effect; inconclusive means small, poorly fitted or top-dose-only effect; inactive means no such curve, though single readings can be large or run the other way. Potencies of inconclusive entries are left out as doubtful fits.

Each compound was assayed against Glucagon-like peptide 1 receptor (Homo sapiens) (UniProt P43220) (assay: qHTS of GLP-1 Receptor Inverse Agonists (Inhibition Mode)). Conditions: HEK293 GLP-1R CRE-luciferase, luminescence, 24 h, GLP-1R form is constitutively active; series mostly up to 38.3 µM.
How it was run: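 HEK293 cells stably co-expressing constitutively active GLP-1R and a cAMP-responsive luciferase reporter were seeded in DMEM with 10% Nu serum, given compounds after 12 h, and incubated 24 h at 37 deg C. Luminescence was then read.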
Further: nearly all actives have a fitted effect of over 55% in size.
Potency means the concentration at half of the fitted maximal effect; tags describe the fitted curve by direction and shape.

Sequence of UniProt P43220 (P43220 whole entry, looked up): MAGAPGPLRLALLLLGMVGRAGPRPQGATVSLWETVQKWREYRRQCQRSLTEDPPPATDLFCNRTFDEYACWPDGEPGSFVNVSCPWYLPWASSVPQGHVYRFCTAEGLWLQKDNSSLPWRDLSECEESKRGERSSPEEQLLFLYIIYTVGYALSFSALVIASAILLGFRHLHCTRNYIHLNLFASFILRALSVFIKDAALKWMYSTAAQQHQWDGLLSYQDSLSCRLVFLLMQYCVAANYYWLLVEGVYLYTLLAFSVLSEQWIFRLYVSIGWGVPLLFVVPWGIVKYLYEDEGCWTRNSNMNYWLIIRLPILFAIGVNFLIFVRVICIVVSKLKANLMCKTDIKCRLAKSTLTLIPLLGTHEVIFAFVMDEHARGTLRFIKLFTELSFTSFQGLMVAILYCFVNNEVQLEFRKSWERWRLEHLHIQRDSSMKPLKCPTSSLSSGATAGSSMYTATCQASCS

Structure (SMILES)	Potency
CC(=O)Nc1ccc(/C=C/c2nc3ccccc3o2)cc1	inconclusive [inhibitor, single point]
O=C(COC(=O)c1ccc(Br)o1)Nc1cccc(S(=O)(=O)N2CCCCCC2)c1	inconclusive [inhibitor, single point]
Brc1ccc(-c2nc(-c3ccccc3)no2)o1	inactive
Cc1ccc(-c2cc(C(=O)N3CC(C)CC(C)C3)c3ccccc3n2)o1 (configuration not stated)	inactive
Cc1cc(C)c(C#N)c(SCc2ccc3c(c2)OCO3)n1	inconclusive [inhibitor, single point]
COc1ccc(-c2csc(Nc3ccccc3)[n+]2CC(O)c2ccc([N+](=O)[O-])cc2)cc1 (configuration not stated)	inconclusive [inhibitor, full curve]
CCOC(=O)c1noc2nc(C)n(CC(=O)Nc3cc(Cl)ccc3OC)c(=O)c12	inactive
CC(NS(=O)(=O)c1ccc(OCC(=O)Nc2cccc([N+](=O)[O-])c2)cc1)c1ccccc1 (configuration not stated)	inconclusive [inhibitor, single point]
COc1ccc(-c2nc3c(Cl)cc(C(F)(F)F)cn3c2Cc2ccc(C)cc2)cc1OC	inconclusive [inhibitor, single point]
Cc1cc(=O)c2cc(C(=O)c3ccccc3)ccc2[nH]1	inactive
CCOC(=O)c1cc(CC)sc1NC(=O)c1cc(OCC)c(OCC)c(OCC)c1	inconclusive [inhibitor, full curve, poor fit]
O=C(NCc1ccco1)C1CCCN(c2ncnc3c2nc2n3CCCCC2)C1 (configuration not stated)	inconclusive [inhibitor, full curve, poor fit]
CCc1ccc(NC(=O)CC2C(=O)N(c3cccc(C)c3)C(=O)N2Cc2cccs2)cc1 (configuration not stated)	inconclusive [inhibitor, single point]
O=C(NC(Cc1c[nH]c2ccccc12)C(=O)N/N=C/c1ccc(Br)cc1)c1cccs1 (configuration not stated)	inconclusive [inhibitor, partial curve, poor fit]
CCOC(=O)c1sc(NC(=O)c2c(C)nn(Cc3ccccc3)c2C)cc1C	inconclusive [inhibitor, single point]
CN1CCN(c2ccc(NC(=O)c3ccc(-c4ccc(Cl)cc4)o3)cc2)CC1	active: 3.98 µM
COc1cc2c(-c3ccccc3C)nc3c(c(C)nn3-c3ccccc3)c2cc1OC	inactive
CCOc1cc(C(=O)Nc2ccc(-c3nc4cc(C)ccc4o3)cc2)cc(OCC)c1OCC	inconclusive [inhibitor, partial curve, poor fit]
COc1ccc(NC(=O)c2cc(-c3cc(OC)c(OC)c(OC)c3)nc3ccccc23)cc1OC	inconclusive [inhibitor, single point]
O=C(Cn1ccc2ccccc2c1=O)NCCC(=O)Nc1cccc(Cl)c1	inactive
O=C(Nc1ccc(-c2noc(-c3cccs3)n2)cc1)c1cccnc1	inconclusive [inhibitor, single point]

Structure (SMILES)	Potency
CCOc1ccccc1NC(=O)CSc1nc2ccccc2c2nc(CCn3cncc3C)nn12	inconclusive [inhibitor, partial curve, poor fit]
Cc1ccc(N2CCN(c3nc4ccc(C)cc4n4nnnc34)CC2)c(C)c1	inactive
CCOc1ccc(CCNC(=O)c2cccc(S(=O)(=O)N3CCCCC3)c2)cc1OCC	inconclusive [inhibitor, single point]
CCOC(=O)C1CCN(Cc2cc(C(C)(C)C)c(O)c(C(C)(C)C)c2)CC1	inconclusive [inhibitor, single point]
O=C(NCC(c1cccnc1)N1CCc2ccccc21)c1ccccc1Br (configuration not stated)	inconclusive [inhibitor, single point]
COc1cc(C=C2C(=O)c3ccccc3C2=O)ccc1O	inactive
Cc1ccc(OCCNC(=O)CNC(=O)c2ccc(C)cc2)cc1	inconclusive [inhibitor, partial curve, poor fit]
Cc1ccc(-c2nc3scc(CCNC(=O)c4cccc(Br)c4)n3n2)cc1	inconclusive [inhibitor, single point]
COc1ccc(NC(=O)CCCNC(=O)Cn2cnc3sc4c(c3c2=O)CCCC4)cc1OC	inactive
CCn1nc(NS(=O)(=O)c2ccccc2)c2cc3cc(C)ccc3nc21	inactive
COC(=O)[C@@H]1[C@@H](C)N(Cc2ccccc2)C(=O)N[C@H]1c1cccc(C(F)(F)F)c1	inconclusive [inhibitor, single point]
CC1(C(=O)Nc2cccc(C(F)(F)F)c2)Cc2c(-c3ccccc3)ccnc2O1 (configuration not stated)	inconclusive [inhibitor, partial curve]
CCOC(=O)c1nnn(CC(=O)Nc2cccc(Cl)c2C)c1C(=O)OCC	inconclusive [inhibitor, partial curve]
CCCCC12CN3CC(C)(CN(C1)C3c1cc(Br)ccc1O)C2=O (configuration not stated)	inconclusive [inhibitor, single point]
CC(C)(C)c1ccc(O)c(N=Cc2cc(Br)ccc2O)c1	inconclusive [inhibitor, single point]
CCC1CCCCN1S(=O)(=O)c1ccccc1 (configuration not stated)	inconclusive [inhibitor, single point]
CCCCN(CC)C(=O)c1ccc(Cl)c(Cl)c1	inconclusive [inhibitor, partial curve, poor fit]
COc1ccc(-c2noc(C3CCCN(C(=O)CCc4ccccc4)C3)n2)cc1 (configuration not stated)	inconclusive [inhibitor, partial curve, poor fit]
Cc1oc(-c2ccccc2F)nc1CN1CCC(C(=O)NCCC2=CCCCC2)CC1	inactive
O=C(O)c1ccc(COc2ccc3ccccc3c2)o1	inconclusive [inhibitor, partial curve, poor fit]
COc1ccccc1C(CNC(=O)C(C)Oc1ccc(Br)cc1)N1CCCC1 (configuration not stated)	inconclusive [inhibitor, single point]
